Measurements published in publication PMC7819943, “Rice protein-binding microarrays: a tool to detect cis-acting elements near promoter regions in rice”.
The list shows a part of the results.

Target: T1, OsWOX13 (Oryza sativa, UniProt Q5QMM3 1-267)
T1 sequence: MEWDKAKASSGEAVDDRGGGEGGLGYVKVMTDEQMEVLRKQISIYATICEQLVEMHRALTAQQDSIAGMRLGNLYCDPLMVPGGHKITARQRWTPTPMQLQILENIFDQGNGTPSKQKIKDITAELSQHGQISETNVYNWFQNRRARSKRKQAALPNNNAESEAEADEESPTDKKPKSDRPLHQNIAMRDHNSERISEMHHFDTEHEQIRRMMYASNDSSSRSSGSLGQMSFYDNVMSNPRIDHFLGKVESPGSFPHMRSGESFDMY
Assay: protein-binding microarray (RPBM); PBS, 2% BSA, 51.3 ng/ul salmon testes DNA, 50 uM zinc acetate, 200 nM TF, 25 C, 1 h; high values mean tight binding
Details: protein: recombinant; tags: N-terminal polyhistidine and DsRed monomer fusion (pET32a); label: CyDye5-dUTP incorporated in the synthesized complementary strand; 3' TTTTT single-stranded linker to array surface; dsDNA, one strand shown
Outline: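 For the binding signal, per-feature fluorescence intensity was read in arbitrary units on an Axon 4000B scanner. Before scanning, a 2% BSA-blocked custom Agilent array made double-stranded with Cy5-dUTP was washed after 1 h at 25 °C with 200 nM protein and 50 µM zinc acetate. The proteins were Ni–NTA-purified transcription factors with N-terminal polyhistidine and DsRed fusions, expressed in E. coli BL21-CodonPlus.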

Sequence	binding signal
ACCATCATCTATTACCTAATCTATATATAGCAGCACATACCGGAGTCACCTAGTGCAG	4170 fluorescence intensity (a.u.)
ATTAACATAATAGCACATTAGCTCAATTTATCTATATGTTCGGAGTCACCTAGTGCAG	8240 fluorescence intensity (a.u.)
TCGGAAATTGAGTTCGTTCCTGGTTCTCACACTGCTCAAACGGAGTCACCTAGTGCAG	3220 fluorescence intensity (a.u.)
TATAAACTGCGAGTTAGCACATCACTGACAACTTGGTCCCCGGAGTCACCTAGTGCAG	5240 fluorescence intensity (a.u.)
AGGCTCTGTGACTGATGATGATCGAGAATTTCTCATGTACCGGAGTCACCTAGTGCAG	5630 fluorescence intensity (a.u.)
TGCTAATTGGGGCTATTTGCTGTGGGCCCCACCGATTCCCCGGAGTCACCTAGTGCAG	35600 fluorescence intensity (a.u.)
AACGCAAACTTAGTTATTGGTAGTGACTGCCAAAACATGCCGGAGTCACCTAGTGCAG	4030 fluorescence intensity (a.u.)
CTTCCTTGATGGATCTTAGCAGTGTATAAAGTACAGCTACCGGAGTCACCTAGTGCAG	4730 fluorescence intensity (a.u.)
TGTGTCATAATTAGCAGTTACTTCTTGGCTACTCCTGTTACGGAGTCACCTAGTGCAG	11200 fluorescence intensity (a.u.)
ACACTAATTTAGAGTATTAAATATAGACTACTTACAAAACCGGAGTCACCTAGTGCAG	10700 fluorescence intensity (a.u.)
TCGAATTTGATCAGTAGCTTAATTATACTTTAGTACTACCCGGAGTCACCTAGTGCAG	10600 fluorescence intensity (a.u.)
TCACAAGATAGATTAATATGAAAATATCACTCAACAAACACGGAGTCACCTAGTGCAG	6970 fluorescence intensity (a.u.)
CATATACAATCATATAGTTGATTTTGAAAGTTATATTATTCGGAGTCACCTAGTGCAG	6510 fluorescence intensity (a.u.)
CCAGCCAATCACGAGCGGAAGCCGGCACCGTCCCCTTTTCCGGAGTCACCTAGTGCAG	16000 fluorescence intensity (a.u.)
TTCTTTGTTTGGTGCATGATTAATTAAGTATATGCTAGTTCGGAGTCACCTAGTGCAG	8370 fluorescence intensity (a.u.)
CACATAATTTTATGGACTAATCTGCAAAATTTCTTCCACACGGAGTCACCTAGTGCAG	15800 fluorescence intensity (a.u.)
CTAGCAATCACCATGTTACTGCTAGCTCTTGTTACTGCATCGGAGTCACCTAGTGCAG	11700 fluorescence intensity (a.u.)
GCTTGTGATAGAATCAATTTACCCTTGCATTTATGGCTAACGGAGTCACCTAGTGCAG	13600 fluorescence intensity (a.u.)
CACACCTGTCACCGTCCCATCCCCACCTCGGCCACAGAGACGGAGTCACCTAGTGCAG	3160 fluorescence intensity (a.u.)
TCTTAGATTTAACATTTAACTATTTATCACCAATGTATCACGGAGTCACCTAGTGCAG	9580 fluorescence intensity (a.u.)
TTTTAATTAAACCATATAACAATAATAATATTAAAATAGACGGAGTCACCTAGTGCAG	9160 fluorescence intensity (a.u.)

Sequence	binding signal
ATGTCCTTGCTAAACGAGTCTAATTAGATGACAAGAAGAGCGGAGTCACCTAGTGCAG	5560 fluorescence intensity (a.u.)
AGAATAATTGCACTCCTAGAAGATTAAAGACAGATTAGCACGGAGTCACCTAGTGCAG	11900 fluorescence intensity (a.u.)
GTTTAAATGTGATGATTATTAGTGGATGATGATGTGGCATCGGAGTCACCTAGTGCAG	34400 fluorescence intensity (a.u.)
CCTGTTACAATTTTAATCAGTTCTTTATTATTCCTCTCCACGGAGTCACCTAGTGCAG	4780 fluorescence intensity (a.u.)
TATTAATTGGGGTGATTCATGACAACGATGAGATATTAATCGGAGTCACCTAGTGCAG	10500 fluorescence intensity (a.u.)
CAATTAATCATGTGTTAATGGCTCACCTCGTTTTACGTATCGGAGTCACCTAGTGCAG	19700 fluorescence intensity (a.u.)
GAGAAATGGTAATTTAGCATGCTTATATATTGAGGTTTAGCGGAGTCACCTAGTGCAG	8510 fluorescence intensity (a.u.)
TAGGAAACGTAATTTTGTTAAGAAAATGTTTTGGCTTCTCCGGAGTCACCTAGTGCAG	3600 fluorescence intensity (a.u.)
GGGAATTAAATGGATCCAGTACAAAGTTCATTTAAACGAGCGGAGTCACCTAGTGCAG	8970 fluorescence intensity (a.u.)
TTTAAATGAAAGATGATTGATGGGGCAATTAGTACTCTAGCGGAGTCACCTAGTGCAG	43400 fluorescence intensity (a.u.)
CATGCTTATTGTCACTCAATTTACCTACCAAGATATAGGTCGGAGTCACCTAGTGCAG	5410 fluorescence intensity (a.u.)
AGTGTTGTACATGATTACTATAAATTGCAAAATATAACATCGGAGTCACCTAGTGCAG	4880 fluorescence intensity (a.u.)
AACCTAAACTAATTACCCACAAACGGCCTCACATAGGTTTCGGAGTCACCTAGTGCAG	7980 fluorescence intensity (a.u.)
TTGATTTTGCTAAATTACCAATTTCAAATAGACATTGCACCGGAGTCACCTAGTGCAG	49800 fluorescence intensity (a.u.)
CCTTGACTTGGATTGCCTTCCCTTTGTGGATGACATGCACCGGAGTCACCTAGTGCAG	6180 fluorescence intensity (a.u.)
GGATGATTTGGTCAGTAGCTTGAGGGATTTGAATTCTTGGCGGAGTCACCTAGTGCAG	31000 fluorescence intensity (a.u.)
TTTGCATAACAGGAATTTAATTCCAAAGGAAAATTTGTGCCGGAGTCACCTAGTGCAG	4760 fluorescence intensity (a.u.)
GACCATTGACATGTGGGATGAATTTTAGACTAGGCGATAACGGAGTCACCTAGTGCAG	3290 fluorescence intensity (a.u.)
AATTGATGATGAAATAATGAATGATATTTGACAAGGAGCTCGGAGTCACCTAGTGCAG	17300 fluorescence intensity (a.u.)
ACCCAATCTTCGGCACTAATCAACCGGAGGACGACGAACCCGGAGTCACCTAGTGCAG	6630 fluorescence intensity (a.u.)
GTTCCAGAGATCAATTAACGTAGCATAGTGAGATATACAGCGGAGTCACCTAGTGCAG	4420 fluorescence intensity (a.u.)

Sequence	binding signal
GTTTGATTTTGTGATGCGTCTTCGGTTAGACTTTGAACCTCGGAGTCACCTAGTGCAG	17600 fluorescence intensity (a.u.)
TAAATTGAATTCTCTCAATACCTCTAGGATTGTCGTGGCTCGGAGTCACCTAGTGCAG	16700 fluorescence intensity (a.u.)
CCAAAATTAACCAGTACACCATACGTGGTTTTCTTCATCACGGAGTCACCTAGTGCAG	9160 fluorescence intensity (a.u.)
CCCTCAATCAGCTGGTCGGCTGGTCGCACACACCACGTTCCGGAGTCACCTAGTGCAG	11500 fluorescence intensity (a.u.)
AGAGCTGATCTGATTAGCACCGATCACAGGTTGGTCCGCACGGAGTCACCTAGTGCAG	19000 fluorescence intensity (a.u.)
TTATGATTTCAACATGATAGTTGGGTAGTGATGGTCCACTCGGAGTCACCTAGTGCAG	6460 fluorescence intensity (a.u.)
GAGTAAATTACAATCCATACTATACTATGTATTCTTAGAACGGAGTCACCTAGTGCAG	11900 fluorescence intensity (a.u.)
CCCCAATGATAATTATGTTCGATTTTAAAATCTCAATGACCGGAGTCACCTAGTGCAG	22200 fluorescence intensity (a.u.)
TGTAAATTACGAGACGAATTTATCAAGCCTAATTAATCTGCGGAGTCACCTAGTGCAG	17500 fluorescence intensity (a.u.)
AAATAATTAGTTGTACGGATGAATTAAGTACTACATAGTACGGAGTCACCTAGTGCAG	13300 fluorescence intensity (a.u.)
CATTTGCCAATTTCAAATTTTCAATTTGCATTCCGTGTCACGGAGTCACCTAGTGCAG	4160 fluorescence intensity (a.u.)
CAAGACAAACCCTGGAATCAATCAGCCTCCAAAGACAAGGCGGAGTCACCTAGTGCAG	5840 fluorescence intensity (a.u.)
GCACGGTTATTTAAATTGAACTTTGACCGTAAGTAGCAGTCGGAGTCACCTAGTGCAG	12200 fluorescence intensity (a.u.)
CAAATGCCGAACGATGAGTGATTGATCACTCGGACGTCACCGGAGTCACCTAGTGCAG	8960 fluorescence intensity (a.u.)
GTGTAATCGGATCGTAGATTGGATGAGTAGTTTAAGAGAACGGAGTCACCTAGTGCAG	3310 fluorescence intensity (a.u.)
GGAGTGTAATTTGTTTTGTTATTAGACCACGTTTAATACTCGGAGTCACCTAGTGCAG	8990 fluorescence intensity (a.u.)
ACTAGATTAGTCCCAACTTAACTACAGCTTGCAGATGATGCGGAGTCACCTAGTGCAG	9970 fluorescence intensity (a.u.)
GATTAGGATTGCTGAATTGATGCAGATATATCCCTCTCTCCGGAGTCACCTAGTGCAG	5550 fluorescence intensity (a.u.)
CGTATAAATATAATATAATTACAGTGTTATTAAATTATATCGGAGTCACCTAGTGCAG	8870 fluorescence intensity (a.u.)
TTCTATCTTGACTGTTGACTGAAAATTTTACTAGTACCTTCGGAGTCACCTAGTGCAG	15100 fluorescence intensity (a.u.)
TCCTAAATTTTCTTTGATCCATCTCCATATATACTTACATCGGAGTCACCTAGTGCAG	4910 fluorescence intensity (a.u.)

Sequence	binding signal
TCTATAAATTACCCAAAACTGCATCCAGAAAGAGCCACGTCGGAGTCACCTAGTGCAG	6240 fluorescence intensity (a.u.)
CCTAATTAATCTATCATTAGCAAGTGTTTATGGTAGCACCCGGAGTCACCTAGTGCAG	42700 fluorescence intensity (a.u.)
AACAAATAAGCTGCTAATTAATTAAGAACTTCCATTATTCCGGAGTCACCTAGTGCAG	15000 fluorescence intensity (a.u.)
GTATAAATTATAAATCACACTTAAAGTATTATGAGTGATACGGAGTCACCTAGTGCAG	18100 fluorescence intensity (a.u.)
TATAAGAAATAATTGAAAAGACCAGAACTGAATGTTGTACCGGAGTCACCTAGTGCAG	6810 fluorescence intensity (a.u.)
AGATGGATAGATAGATAGATAGATAGGGCCGGCAACCCAGCGGAGTCACCTAGTGCAG	26900 fluorescence intensity (a.u.)
GTTACCAGTGAGTCAATCATCTCCCTTTCTTTCCTCTCTTCGGAGTCACCTAGTGCAG	10000 fluorescence intensity (a.u.)
CATGATTATTTCAGGTGGCTCCTCCTTGATGGGTTGCATTCGGAGTCACCTAGTGCAG	29500 fluorescence intensity (a.u.)
CGAAGAAATTGTTCTAATTAACCTAGAGTTAATTCCCTAACGGAGTCACCTAGTGCAG	9750 fluorescence intensity (a.u.)
GAGATAGATATAATCACAAAAGCTTCTAGAATGGCGGAAACGGAGTCACCTAGTGCAG	8390 fluorescence intensity (a.u.)
AATAATTTAGTATTGGATGAGTTTCTATCCGTTCTGATTTCGGAGTCACCTAGTGCAG	7120 fluorescence intensity (a.u.)
GATGATTACACTATGGCAAAGGAGGGCTGGAGGATTACGACGGAGTCACCTAGTGCAG	11300 fluorescence intensity (a.u.)
TTAAAATAATAGCTAATACTTAATTTATCACGTGCTAATGCGGAGTCACCTAGTGCAG	4890 fluorescence intensity (a.u.)
CACTATCAATTAAGCCCATTGGCTAAAACTACATTTTGTACGGAGTCACCTAGTGCAG	15900 fluorescence intensity (a.u.)
CCGAAAATTGAGACACGAATTTATTAAGCTTAATTAATCCCGGAGTCACCTAGTGCAG	22000 fluorescence intensity (a.u.)
GTGGCTTATAAATTGATGGCCACACCTTAGGCAACTTTTGCGGAGTCACCTAGTGCAG	7700 fluorescence intensity (a.u.)
TGGGGTTTGATTATTTGACATTTTGGTATATTTTCATCAACGGAGTCACCTAGTGCAG	9690 fluorescence intensity (a.u.)
TTGATTGTTCACTGTTAGTCTATCATCTACCCCAAAGGTTCGGAGTCACCTAGTGCAG	32600 fluorescence intensity (a.u.)
CCCCAATCAACTTCTTCAATTATCCATGCATTCCTTACGCCGGAGTCACCTAGTGCAG	23800 fluorescence intensity (a.u.)
ATATTAATTTTACGTTTCTAAATTATTGTTTTAGAAGTTACGGAGTCACCTAGTGCAG	14300 fluorescence intensity (a.u.)
GATGACATTAATTAGCACTAATGATAATTGTTAATATTTTCGGAGTCACCTAGTGCAG	25000 fluorescence intensity (a.u.)
